Measurements published in PubChem BioAssay AID504332 (National Center for Advancing Translational Sciences (NCATS), 2011).
Out of some 350,000 compounds screened, about 31,000 (8.9%) were called active. The shares of active, inactive and inconclusive entries below differ from those in the screen. The call rests on the fitted dose curve; in most records, active means well fitted inhibition curve with a large enough effect; inconclusive means small, poorly fitted or top-dose-only effect; inactive means no such curve, though single readings can be large or run the other way. A potency beside an inconclusive call is a rough fit, not a confirmed value.

The compounds below were run against Histone-lysine N-methyltransferase EHMT2 (Homo sapiens) (UniProt Q96KQ7) (assay: qHTS Assay for Inhibitors of Histone Lysine Methyltransferase G9a). Settings: G9a H3K9 monomethylation, AlphaScreen, 2 h; activity, negative = inhibition: at 59 µM (top of the series) unless noted.
Summary of the method: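 G9a (20 nM) preincubated 15 min RT with compounds, then 500 nM biotinylated H3K9 peptide and 20 uM SAM added; 2 h RT reaction. Monomethyl-H3K9 product detected by AlphaScreen with anti-H3K9me1 antibody, streptavidin donor and anti-rabbit IgG acceptor beads.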
Further: nearly all actives have a fitted effect of over 75% in size.
On the % scale 0 is the no-effect control and ±100 the full control effect; potency means the concentration at half of the fitted maximal effect; tags describe the fitted curve by direction and shape.

Chain of UniProt Q96KQ7 (Q96KQ7 whole entry, looked up): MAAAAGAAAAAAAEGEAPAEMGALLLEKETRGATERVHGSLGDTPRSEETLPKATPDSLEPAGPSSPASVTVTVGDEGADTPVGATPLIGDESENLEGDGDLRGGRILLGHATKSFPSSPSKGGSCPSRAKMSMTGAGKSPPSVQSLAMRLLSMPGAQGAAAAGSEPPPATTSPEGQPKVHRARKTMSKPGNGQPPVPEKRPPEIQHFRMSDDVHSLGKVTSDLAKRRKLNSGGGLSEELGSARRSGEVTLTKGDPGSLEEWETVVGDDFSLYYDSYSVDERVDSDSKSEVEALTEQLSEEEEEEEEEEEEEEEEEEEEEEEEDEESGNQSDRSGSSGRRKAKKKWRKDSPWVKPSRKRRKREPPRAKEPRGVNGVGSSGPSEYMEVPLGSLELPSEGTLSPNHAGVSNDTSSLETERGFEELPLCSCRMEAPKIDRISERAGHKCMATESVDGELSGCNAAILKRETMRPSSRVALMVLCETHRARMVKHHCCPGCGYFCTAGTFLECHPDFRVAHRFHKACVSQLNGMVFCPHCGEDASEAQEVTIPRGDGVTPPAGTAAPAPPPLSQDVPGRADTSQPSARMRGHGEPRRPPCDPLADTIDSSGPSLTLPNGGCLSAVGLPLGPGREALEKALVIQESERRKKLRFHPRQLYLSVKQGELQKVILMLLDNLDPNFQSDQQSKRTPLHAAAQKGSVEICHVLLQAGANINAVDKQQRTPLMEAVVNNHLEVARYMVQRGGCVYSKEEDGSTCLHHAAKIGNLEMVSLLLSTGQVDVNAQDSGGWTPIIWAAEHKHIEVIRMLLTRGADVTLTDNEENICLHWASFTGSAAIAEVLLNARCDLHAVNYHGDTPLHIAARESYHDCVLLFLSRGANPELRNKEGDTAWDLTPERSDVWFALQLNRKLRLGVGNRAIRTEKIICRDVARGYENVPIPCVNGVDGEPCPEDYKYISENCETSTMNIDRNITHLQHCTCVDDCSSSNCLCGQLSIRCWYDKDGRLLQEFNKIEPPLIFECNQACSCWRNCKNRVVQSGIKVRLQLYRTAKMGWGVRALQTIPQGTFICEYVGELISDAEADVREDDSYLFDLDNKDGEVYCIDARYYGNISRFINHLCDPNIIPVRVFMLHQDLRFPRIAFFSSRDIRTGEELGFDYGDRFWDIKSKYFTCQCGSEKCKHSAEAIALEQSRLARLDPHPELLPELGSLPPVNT

SMILES | Potency | activity, negative = inhibition
CC1CC(C)CN(CC(=O)c2cccs2)C1 (centres undefined) | inconclusive: 35.5 µM [inhibitor, partial curve, poor fit] | 
CCn1c(=O)c([N+](=O)[O-])c(NCC(O)c2ccccc2)c2ccccc21 (centres undefined) | inactive | 
CSc1ccccc1C(=O)Nc1nc2ccccc2c(=O)[nH]1 | inconclusive: 89.1 µM [inhibitor, single point] | 
CCc1nnc(NC(=O)CSc2nc3c(c(=O)n2-c2ccccc2OC)SCC3)s1 |  | inactive: -12.8% [at 12.7 µM]
O=C1CCC[C@@H]2Cc3[nH]c4c(Cl)ccc(Cl)c4c3[C@@H]3CCN1[C@H]23 | active: 50.1 µM | 
COc1ccc(-c2nc3cnc(N4CCN(C)CC4)nc3n(-c3ccc(OC)cc3)c2=O)cc1 |  | inactive: 3.08% [at 0.501 µM]
CC1C(=O)CCCCCCCCCC2C1(N1CCOCC1)CS2(=O)=O (centres undefined) | inconclusive: 28.2 µM [inhibitor, single point] | 
COc1ccc(Cn2cnc3c(N)c(C)c(C)cc32)cc1 | inconclusive: 70.8 µM [inhibitor, single point] | 
COc1cccc(C(=O)NCC(=O)N/N=C(\C)Cc2ccccc2)c1 | inactive | 
COc1cccc(/C=C2\SC(=O)NC2=O)c1OCc1ccc(C(=O)O)cc1 | inactive | 
NS(=O)(=O)c1ccc(NC(=S)Nc2ccc(F)c(F)c2)cc1 | inactive | 
N#CC1(NC(=O)COC(=O)c2cc([N+](=O)[O-])ccc2N2CCCC2)CCCCC1 | inconclusive: 44.7 µM [inhibitor, partial curve] | 
COc1cc(OC)c2ccc(=O)oc2c1C(CC(=O)N1CCOCC1)c1ccc(N(C)C)cc1 (centres undefined) |  | inconclusive: -71.1% [inhibitor]
COc1ccc([N+](=O)[O-])cc1NC(=O)C(C)N(C)Cc1cccc(OC)c1OC (centres undefined) | inconclusive: 89.1 µM [inhibitor, single point] | 
CCc1ccccc1NC(=S)NCC1CCN(c2ccc(OC)cc2)C1 (centres undefined) | inconclusive: 3.98 µM [inhibitor, single point] | 
Cn1c(=O)cc(OCCCC(=O)NC2CCCC2)c2ccccc21 | inconclusive: 4.47 µM [inhibitor, single point] | 
CCc1ccc(CN2CCCC(C(=O)Nc3ccccc3-c3ccc(OC)cc3)C2)o1 (centres undefined) | inconclusive: 79.4 µM [inhibitor, single point] | 
Cc1ccc(CCNC(=O)CS(=O)Cc2nc(-c3ccccc3Cl)oc2C)cc1 (centres undefined) | active: 50.1 µM | 
NS(=O)(=O)c1ccc(Nc2nc(-c3cccc([N+](=O)[O-])c3)cs2)cc1 | active: 39.8 µM | 
Cc1c(C(=O)Nc2nc(-c3ccc(F)cc3)ns2)oc2ccc(Cl)cc12 | inconclusive: 35.5 µM [inhibitor, partial curve, poor fit] | 
CCOc1ccccc1OC(=O)c1ccco1 | inactive | 
COc1ccccc1Cn1c(=S)[nH]c2ccc(Br)cc2c1=O | inactive | 
Cc1cc(C)c2c(N)c(C(=O)N3CCN(c4ncccn4)CC3)sc2n1 | inconclusive: 3.55 µM [inhibitor, single point] | 

SMILES | Potency | activity, negative = inhibition
COc1ccc(CNc2nc3c(-c4ccccc4)nnn3c3ccccc23)cc1 | inactive | 
Cc1c(Cl)ccc2c(C(=O)NC(C)c3ccncc3)cc(-c3ccncc3)nc12 (centres undefined) | inactive | 
O=C1CC(c2cccc([N+](=O)[O-])c2)c2cc3c(cc2N1)CCC3 (centres undefined) | inconclusive: 39.8 µM [inhibitor, partial curve] | 
O=C(Nc1ccc(F)cc1)c1csc2c1CCCCC2 | inconclusive: 28.2 µM [inhibitor, single point] | 
COC(=O)C(C)Oc1ccc(Cc2ncc(C(F)(F)F)cc2Cl)cc1 (centres undefined) |  | inactive: 3.58% [at 2.33 µM]
Cc1cc(C)c2nc(-c3ccccn3)cc(C(=O)N3CCCC3)c2c1 | inconclusive: 56.2 µM [inhibitor, partial curve, poor fit] | 
O=C(O)c1c[nH]c2ccc(F)cc2c1=O | active: 17.8 µM | 
Cn1nnc2cc(C(=O)N3CCN(c4ccccn4)CC3)ccc21 | active: 17.8 µM | 
O=C1c2ccccc2NC(c2cnc3ccccc3n2)N1O (centres undefined) | inconclusive: 50.1 µM [inhibitor, partial curve, poor fit] | 
O=C(CCNC(=O)N1CCn2c1nc1ccccc12)NCc1ccccc1Cl | inconclusive: 89.1 µM [inhibitor, single point] | 
Cc1ccccc1NC(=O)CSc1nc2nccnc2c(=O)n1CCc1c[nH]c2ccccc12 | inactive | 
N#CC1=C(N)Oc2n[nH]c(-c3cccnc3)c2C1c1ccc([N+](=O)[O-])o1 (centres undefined) | inconclusive: 79.4 µM [inhibitor, single point] | 
CC(=C\C(=O)O)/C(=C/c1ccco1)C(=O)O | active: 44.7 µM | 
O=S(=O)(NCc1ccc(F)cc1)c1ccccc1Br |  | inconclusive: -80.9% [inhibitor] [at 2.33 µM]
O=c1c2ccccc2[nH]c(=S)n1CCCN1CCC(Cc2ccccc2)CC1 | inconclusive: 79.4 µM [inhibitor, single point] | 
CC1CCCc2sc3nc(SCC(=O)c4ccc(Br)cc4)nc(N)c3c21 (centres undefined) | inconclusive: 0.794 µM [inhibitor, full curve, poor fit] | 
COCCn1c(C)cc(C(=O)COC(=O)C2CC(=O)N(CCc3ccc(OC)c(OC)c3)C2)c1C (centres undefined) | inconclusive: 56.2 µM [inhibitor, partial curve, poor fit] | 
CCC(=O)Nc1ccc(SC#N)cc1C | inconclusive: 11.2 µM [inhibitor, partial curve, poor fit] | 
Cc1c(/C=N\NC(=O)C2COc3ccccc3O2)c2ccccc2n1C (centres undefined) | inactive | 
CCCCN(C)CCCNC(=O)Cn1ncc2c3ccccc3n(Cc3ccccc3)c2c1=O | inactive | 
CN(Cc1ccccc1)S(=O)(=O)c1nnc(NC(=O)c2cccc(Cl)c2)s1 | inconclusive: 10 µM [inhibitor, partial curve, poor fit] | 
Cc1ccccc1N1C(=O)CC(Nc2ccc3c(c2)OCO3)C1=O (centres undefined) | active: 39.8 µM | 
O=C(/C=C/c1ccccc1)NC(=S)NNC(=O)c1cccnc1 | active: 22.4 µM | 

SMILES | Potency | activity, negative = inhibition
CCN(CC)c1ccc(-n2c(O)c(C=C3N=c4ccccc4=N3)sc2=S)cc1 | inconclusive: 39.8 µM [inhibitor, single point] | 
COc1cc(/C=C/C(=O)OCC(=O)N2CCc3ccccc3C2)ccc1O | inconclusive: 17.8 µM [inhibitor, partial curve, poor fit] | 
CCOc1ccc(N(CC)S(=O)(=O)c2cc(Br)cc3c2N(C(C)=O)C(C)C3)cc1 (centres undefined) | active: 1.41 µM | 
Cc1nc(N2CCN(C(=O)c3ccco3)CC2)c2c3c(sc2n1)CC(C)CC3 (centres undefined) | active: 50.1 µM | 
O=C(N/N=C1\CC2CC=CC12)c1ccccc1Cl (centres undefined) | inactive | 
CC(C)(C)NC(=S)Nc1cccc(C(F)(F)F)c1 | inactive | 
COc1cccc(C2(C)NC(=O)N(CC(=O)c3cc(C)n(C4CC4)c3C)C2=O)c1 (centres undefined) |  | inactive: 14.7% [at 2.33 µM]
CCN(CC)S(=O)(=O)c1ccc(N2CCCC2)c(NS(=O)(=O)c2ccc(F)cc2)c1 | inconclusive: 25.1 µM [inhibitor, single point] | 
CC(NC(=O)Cc1cccs1)C(c1cccs1)N1CCN(c2ccccc2F)CC1 (centres undefined) | inconclusive: 44.7 µM [inhibitor, partial curve] | 
CCN=C1SC(CC(=O)Nc2sc(C)c(C)c2C(=O)OC)C(=O)N1CC (centres undefined) | inconclusive: 70.8 µM [inhibitor, single point] | 
CN(C)/C=C/C(=O)c1ccc([N+](=O)[O-])c(CS(=O)(=O)c2ccc(Cl)cc2)c1 | inactive | 
Cc1ccc(C2=NS(=O)(=O)N(C)C(C(=O)N(C)C3CCCCC3)=C2)cc1 | inconclusive: 70.8 µM [inhibitor, single point] | 
COCc1nc2ccccc2n1CCOc1cccc(C)c1 | inactive | 
O=C1CC(c2ccccc2)Sc2nc3ccccc3n21 (centres undefined) | inconclusive: 79.4 µM [inhibitor, partial curve, poor fit] | 
C/C1=C2/[N-]C(C(CC(N)=O)[C@@]2(C)CCC(=O)NCC(C)OP(=O)([O-])O[C@H]2[C@@H](O)[C@@H](n3cnc4cc(C)c(C)cc43)O[C@@H]2CO)[C@]2(C)N=C(/C(C)=C3N=C(/C=C4N=C1C(CCC(N)=O)C\4(C)C)[C@@H](CCC(N)=O)[C@]\3(C)CC(N)=O)[C@@H](CCC(N)=O)[C@]2(C)CC(N)=O.CC(=O)O.[Co] (some centres undefined) | inconclusive: 2.24 µM [inhibitor, partial curve, poor fit] | 
CCOc1ccccc1CN1CCN(S(=O)(=O)c2ccccc2)CC1 | inactive | 
Cc1ccc(C(=O)Nc2cc3c(cc2C)n(C)c(=O)c(=O)n3C)cc1 | inactive | 
COc1ccc(Cl)cc1C(=O)CSc1nnnn1C | inactive | 
COc1cccc(CC(=O)Nc2cc(S(=O)(=O)N3CCCCC3)ccc2C)c1 | inconclusive: 8.91 µM [inhibitor, single point] | 
CCCOC(=O)c1c(NC(=O)c2nc3ncccn3n2)sc(C(N)=O)c1C | inconclusive: 28.2 µM [inhibitor, single point] | 
COC(=O)c1[nH]c(C)c(/C(O)=C2\C(=O)C(=O)N(CCN(C)C)C2c2cc(OC)ccc2OC)c1C (centres undefined) | active: 50.1 µM | 
CCCCn1c(SCC(=O)NC2CCS(=O)(=O)C2)nnc1-c1ccc(OC)cc1 (centres undefined) | inconclusive: 50.1 µM [inhibitor, partial curve] | 
COc1ccc(OC)c(C(=O)COC(=O)CNC(=O)c2ccccc2)c1 | inconclusive: 3.98 µM [inhibitor, partial curve, poor fit] | 
